Measurements as given in the supplement of paper PMC12015411.

Test system: Escherichia coli BW25113
Test: growth relative to no-drug wells (fraction of no-drug control); higher = more growth, less inhibition
Protocol: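 8 x 8 checkerboard in cation-adjusted Mueller-Hinton broth at 37 °C; OD600 at the end of exponential growth as a fraction of no-drug wells, two biological replicates.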

CN(C)c1cc(NC(=O)CNC(C)(C)C)c(O)c2c1C[C@H]1C[C@H]3[C@H](N(C)C)C(O)=C(C(N)=O)C(=O)[C@@]3(O)C(O)=C1C2=O [Tigecycline]
nitroxoline concentration 0 µg/ml
Conditions	growth
0.0125 µg/ml	0.947
0.0215 µg/ml	0.946
0.025 µg/ml	1
0.043 µg/ml	0.957
0.05 µg/ml	1
0.086 µg/ml	0.9982
0.1 µg/ml	0.959

CN(C)c1cc(NC(=O)CNC(C)(C)C)c(O)c2c1C[C@H]1C[C@H]3[C@H](N(C)C)C(O)=C(C(N)=O)C(=O)[C@@]3(O)C(O)=C1C2=O [Tigecycline] + Oc1ccc([N+](=O)[O-])c2cccnc12 [nitroxoline]
growth
Conditions	nitroxoline concentration 0.136 µg/ml	nitroxoline concentration 0.255 µg/ml	nitroxoline concentration 0.374 µg/ml	nitroxoline concentration 0.493 µg/ml	nitroxoline concentration 0.612 µg/ml	nitroxoline concentration 0.731 µg/ml	nitroxoline concentration 0.85 µg/ml
0.0125 µg/ml	1	1	0.859	0.673	0.583	0.493	0.484
0.0215 µg/ml	1	1	0.862	0.6763	0.552	0.492	0.514
0.025 µg/ml	1	1	0.862	0.6776	0.602	0.517	0.532
0.043 µg/ml	1	1	0.86	0.72	0.628	0.567	0.51
0.05 µg/ml	1	1	0.883	0.754	0.647	0.581	0.523
0.086 µg/ml	1	0.989	0.814	0.713	0.614	0.543	0.426
0.1 µg/ml	1	0.897	0.77	0.696	0.616	0.482	0.447

NC[C@H]1O[C@H](O[C@H]2[C@H](O)[C@@H](O[C@H]3O[C@H](CO)[C@@H](O)[C@H](N)[C@H]3O)[C@H](N)C[C@@H]2N)[C@H](N)C[C@@H]1O [Tobramycin]
nitroxoline concentration 0 µg/ml
Conditions	growth
0.0187 µg/ml	0.917
0.0325 µg/ml	0.968
0.0375 µg/ml	0.9483
0.065 µg/ml	0.845
0.075 µg/ml	0.808
0.13 µg/ml	0.706
0.15 µg/ml	0.641

NC[C@H]1O[C@H](O[C@H]2[C@H](O)[C@@H](O[C@H]3O[C@H](CO)[C@@H](O)[C@H](N)[C@H]3O)[C@H](N)C[C@@H]2N)[C@H](N)C[C@@H]1O [Tobramycin] + Oc1ccc([N+](=O)[O-])c2cccnc12 [nitroxoline]
growth
Conditions	nitroxoline concentration 0.136 µg/ml	nitroxoline concentration 0.255 µg/ml	nitroxoline concentration 0.374 µg/ml	nitroxoline concentration 0.493 µg/ml	nitroxoline concentration 0.612 µg/ml	nitroxoline concentration 0.731 µg/ml	nitroxoline concentration 0.85 µg/ml
0.0187 µg/ml	1	0.975	0.783	0.504	0.511	0.347	0.245
0.0325 µg/ml	1	1	0.786	0.552	0.475	0.412	0.251
0.0375 µg/ml	1	1	0.819	0.573	0.519	0.399	0.286
0.065 µg/ml	1	1	0.849	0.701	0.5	0.395	0.257
0.075 µg/ml	1	1	0.893	0.647	0.487	0.394	0.226
0.13 µg/ml	0.799	0.877	0.852	0.762	0.519	0.429	0.244
0.15 µg/ml	0.671	0.724	0.625	0.555	0.423	0.341	0.258

COc1cc(Cc2cnc(N)nc2N)cc(OC)c1OC [Trimethoprim]
nitroxoline concentration 0 µg/ml
Conditions	growth
0.0224 µg/ml	0.849
0.042 µg/ml	0.891
0.0616 µg/ml	0.322
0.0812 µg/ml	0.235
0.1008 µg/ml	0.0333
0.1204 µg/ml	0.0347
0.14 µg/ml	0

COc1cc(Cc2cnc(N)nc2N)cc(OC)c1OC [Trimethoprim] + Oc1ccc([N+](=O)[O-])c2cccnc12 [nitroxoline]
growth
Conditions	nitroxoline concentration 0.12 µg/ml	nitroxoline concentration 0.225 µg/ml	nitroxoline concentration 0.33 µg/ml	nitroxoline concentration 0.435 µg/ml	nitroxoline concentration 0.54 µg/ml	nitroxoline concentration 0.645 µg/ml	nitroxoline concentration 0.75 µg/ml
0.0224 µg/ml	0.884	0.946	1	1	0.9964	0.8545	0.814
0.042 µg/ml	0.714	0.841	1	0.993	0.866	0.757	0.6972
0.0616 µg/ml	0.512	0.628	0.807	0.805	0.769	0.655	0.6183
0.0812 µg/ml	0.235	0.381	0.499	0.52	0.556	0.5565	0.517
0.1008 µg/ml	0.111	0.192	0.527	0.494	0.437	0.464	0.45
0.1204 µg/ml	0.107	–	0.447	0.409	0.407	0.4193	0.411
0.14 µg/ml	0.093	–	0.357	0.357	0.36	0.357	0.393

CN[C@H](CC(C)C)C(=O)N[C@H]1C(=O)N[C@@H](CC(N)=O)C(=O)N[C@H]2C(=O)N[C@H]3C(=O)N[C@H](C(=O)N[C@H](C(=O)O)c4cc(O)cc(O)c4-c4cc3ccc4O)[C@H](O)c3ccc(c(Cl)c3)Oc3cc2cc(c3O[C@@H]2O[C@H](CO)[C@@H](O)[C@H](O)[C@H]2O[C@H]2C[C@](C)(N)[C@H](O)[C@H](C)O2)Oc2ccc(cc2Cl)[C@H]1O [Vancomycin]
nitroxoline concentration 0 µg/ml
Conditions	growth
13.5714 µg/ml	0.982
25.4762 µg/ml	0.958
37.381 µg/ml	0.917
49.2857 µg/ml	0.787
61.1905 µg/ml	0.6327
73.0952 µg/ml	0.403
85 µg/ml	0.428

CN[C@H](CC(C)C)C(=O)N[C@H]1C(=O)N[C@@H](CC(N)=O)C(=O)N[C@H]2C(=O)N[C@H]3C(=O)N[C@H](C(=O)N[C@H](C(=O)O)c4cc(O)cc(O)c4-c4cc3ccc4O)[C@H](O)c3ccc(c(Cl)c3)Oc3cc2cc(c3O[C@@H]2O[C@H](CO)[C@@H](O)[C@H](O)[C@H]2O[C@H]2C[C@](C)(N)[C@H](O)[C@H](C)O2)Oc2ccc(cc2Cl)[C@H]1O [Vancomycin] + Oc1ccc([N+](=O)[O-])c2cccnc12 [nitroxoline]
growth
Conditions	nitroxoline concentration 0.136 µg/ml	nitroxoline concentration 0.255 µg/ml	nitroxoline concentration 0.374 µg/ml	nitroxoline concentration 0.493 µg/ml	nitroxoline concentration 0.612 µg/ml	nitroxoline concentration 0.731 µg/ml	nitroxoline concentration 0.75 µg/ml
13.5714 µg/ml	0.947	1	1	0.9972	0.771	0.768	0.7039
25.4762 µg/ml	0.969	0.984	0.962	0.641	0.549	0.522	0.338
37.381 µg/ml	0.921	0.811	0.68	0.261	0.296	0.22	0.259
49.2857 µg/ml	0.518	0.679	0.349	0.217	0.171	0.0144	0.022
61.1905 µg/ml	0.379	0.578	0.22	0.0777	0.00587	0.00921	0.0124
73.0952 µg/ml	0.476	0.416	0.0614	0.0015	0.00587	0.00829	0.00852
85 µg/ml	0.447	0.317	0	0.00092	0.00806	0.00668	0.00713

Bacterial growth in Mueller-Hinton broth at 37 °C with the drug at the dose given, alone or with nitroxoline. Checkerboards on E. coli BW25113: OD600 at the end of exponential growth as a fraction of no-drug wells. Colistin series: OD595 at 10.75 h as a fraction of the colistin-free well. 1 = full growth, lower = more inhibition. No active / inactive call per well. Checkerboard doses stop near each drug's IC75, and their values pile up at 1, as if capped there. Colistin and gentamicin are mixtures; one drawing stands for each.
